The values below come from PMC4336329 (PLoS ONE, 2015).

In all, about 310,000 compounds went through this assay and about 14,000 (4.5%) showed an effect of 50% or more. Effects have a minus sign here. The list shows a part of the results.
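Further: peak tail current of the secondary pulse compared with the same well before compound.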

The target in the assay is human ether-à-go-go-related gene (hERG) potassium channel (human, UniProt Q12809). The experiment in a line: primary screen, population patch clamp on CHO cells stably expressing hERG.
Sequence of human ether-à-go-go-related gene (hERG) potassium channel (Q12809 whole entry, looked up): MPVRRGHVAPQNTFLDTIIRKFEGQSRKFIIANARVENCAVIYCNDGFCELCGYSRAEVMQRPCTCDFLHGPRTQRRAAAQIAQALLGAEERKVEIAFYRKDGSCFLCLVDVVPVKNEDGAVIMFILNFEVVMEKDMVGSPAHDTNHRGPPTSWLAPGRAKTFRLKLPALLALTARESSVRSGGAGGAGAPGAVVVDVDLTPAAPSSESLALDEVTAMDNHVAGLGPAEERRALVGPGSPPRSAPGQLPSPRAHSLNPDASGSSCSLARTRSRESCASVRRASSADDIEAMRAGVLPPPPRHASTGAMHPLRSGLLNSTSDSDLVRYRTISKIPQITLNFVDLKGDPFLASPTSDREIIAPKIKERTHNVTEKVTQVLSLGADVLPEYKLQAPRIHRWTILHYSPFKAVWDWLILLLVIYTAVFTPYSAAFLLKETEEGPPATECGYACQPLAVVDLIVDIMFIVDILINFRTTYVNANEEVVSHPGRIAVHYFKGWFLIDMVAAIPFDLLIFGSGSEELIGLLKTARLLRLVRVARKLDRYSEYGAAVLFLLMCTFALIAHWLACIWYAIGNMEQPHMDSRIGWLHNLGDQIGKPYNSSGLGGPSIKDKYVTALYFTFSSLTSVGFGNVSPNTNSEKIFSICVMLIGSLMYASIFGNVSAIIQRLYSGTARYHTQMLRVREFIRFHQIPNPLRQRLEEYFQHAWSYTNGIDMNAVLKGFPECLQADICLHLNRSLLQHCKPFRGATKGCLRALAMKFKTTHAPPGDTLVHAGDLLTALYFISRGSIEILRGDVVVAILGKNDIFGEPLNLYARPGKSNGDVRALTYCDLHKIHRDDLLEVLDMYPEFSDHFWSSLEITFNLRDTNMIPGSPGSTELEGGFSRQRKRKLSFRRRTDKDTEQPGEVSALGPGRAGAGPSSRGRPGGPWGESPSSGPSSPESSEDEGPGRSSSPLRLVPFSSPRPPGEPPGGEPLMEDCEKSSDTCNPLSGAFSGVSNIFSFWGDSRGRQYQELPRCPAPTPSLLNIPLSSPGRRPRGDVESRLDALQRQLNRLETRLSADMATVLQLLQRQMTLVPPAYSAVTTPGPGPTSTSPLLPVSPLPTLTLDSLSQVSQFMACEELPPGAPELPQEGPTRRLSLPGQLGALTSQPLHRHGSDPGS
Take `O=C(Cc1ccc(Cl)cc1)Nc1cc(S(=O)(=O)N2CCOCC2)ccc1N1CCCC1`: the “hERG current change (%, negative = inhibition) at 10uM” value is listed as -37.3%.
Turning to `CCOC(=O)Cn1c2ccccc2c2nc(C)sc21`, the “hERG current change (%, negative = inhibition) at 10uM” value was found to be 12.3%.
The figure for `CCCc1cc(=O)oc2cc(OCC(=O)N3CCC(C(N)=O)CC3)ccc12` is -6.67%; for `CCc1cccc2c(C=C(C#N)C#N)cn(CC(=O)N3CCCCC3)c12` it is -6.22%.
As to `CN(C)CCCN(C(=O)c1ccc(Cl)s1)c1nc2cc3c(cc2s1)OCO3`, the “hERG current change (%, negative = inhibition) at 10uM” value is -69%.
Next, `COc1cc(C(=O)NCCNC(=O)c2cc(OC)c(C)c(OC)c2)cc(OC)c1C`: 18.6%.
For the compound `COc1ccc(OC)c(C2C3=C(CC(C)(C)CC3=O)Nc3nnnn32)c1` (centres unmarked), the “hERG current change (%, negative = inhibition) at 10uM” value is listed as -1.49%.
In the case of `CC1(C)Cc2c(sc(NC(=O)c3ccco3)c2C#N)C(C)(C)N1`, the “hERG current change (%, negative = inhibition) at 10uM” value is on record as -10.4%.
As to `CCN(CC)S(=O)(=O)c1ccc(N/N=C/c2cc(OC)c(OC)cc2OC)nc1`, the “hERG current change (%, negative = inhibition) at 10uM” value is 4.61%.
Take `N#CCCn1cc(/C=N/O)c(-c2ccc(F)cc2)n1`: the “hERG current change (%, negative = inhibition) at 10uM” value is -7.67%.
As to `N=c1c(C(=O)NC2CCCCC2)cc2c(=O)n3ccccc3nc2n1Cc1ccccc1`, the “hERG current change (%, negative = inhibition) at 10uM” value is on record as -69.8%.
The figure for `CCOC(=O)c1cnc2ccc(OC)cc2c1Nc1ccc(N2CCN(C)CC2)cc1` is -18.2%.
With `COc1ccccc1N(CC(=O)N1CCN(c2ccc(F)cc2)CC1)S(=O)(=O)c1ccc(C)cc1`, the “hERG current change (%, negative = inhibition) at 10uM” value is on record as 4.68%.
Next, `O=C(NN1C(=O)c2cc(Br)ccc2NC1c1ccccc1Cl)c1ccncc1` (centres unmarked): 8.83%; `CC(Oc1ccc2c3c(c(=O)oc2c1)CCCC3)C(=O)NCc1ccccn1` (centres unmarked): -4.72%.
The figure for `O=C(CSc1nnc(-c2ccccc2)n1-c1ccc(Cl)cc1)NNC(=S)Nc1ccccc1` is 13.5%; for `CN1CCN(S(=O)(=O)c2ccc(Oc3ccc(F)cc3Br)nc2)CC1` it is -8.56%; for `O=C(c1ccccc1NS(=O)(=O)c1ccccc1[N+](=O)[O-])N1CCCC1` it is 15.1%.
For the compound `COC(=O)CSc1ccc2nnc(CCNS(=O)(=O)c3ccccc3)n2n1`, the “hERG current change (%, negative = inhibition) at 10uM” value is listed as 24.3%.
For `COc1ccc(N(CN2C(=O)C3CCCCC3C2=O)C(=O)c2ccco2)cc1` (centres unmarked), the “hERG current change (%, negative = inhibition) at 10uM” value is on record as -9.31%.
Next, `CC(C)Cc1cc(C(=O)NCc2cccs2)no1`: -16.6%; `Cc1ccc(S(=O)(=O)N2CCN(C3CCC(c4ccccc4)CC3)CC2)cc1` (centres unmarked): -0.849%; `Cl.O=C(O)CC1(CC(=O)N2CCN(CCO)CC2)CCCC1`: 15.9%.
The figure for `CC(C)CC12CN3CCN(CC(C3)/C1=N/O)C2` is 0.256%; for `CN1CCN(c2ccc(NC(=O)c3cccc(S(=O)(=O)N4CCCC4)c3)cc2)CC1` it is 5.61%.
On to `COC(=O)/C(=C/Nc1cccc2ccccc12)[N+](=O)[O-]`, for which the “hERG current change (%, negative = inhibition) at 10uM” value is -10.4%.
With `O=C(Nc1ccc(F)cc1)c1cccc2ccccc12`, the “hERG current change (%, negative = inhibition) at 10uM” value is reported as 10.3%.
The figure for `O=C(NCC(=O)N(Cc1ccco1)C(C(=O)NC1CCCCC1)c1ccncc1)c1cccs1` (centres unmarked) is -22%.
As for `COc1ccc(/C=C/C(=O)Oc2ccc(/C=N/NC(=O)COc3c(C)cccc3C)cc2)cc1`, the “hERG current change (%, negative = inhibition) at 10uM” value is 14.5%.
As to `CN1CCN(C(=O)c2cc3c(=O)n4ccccc4nc3s2)CC1`, the “hERG current change (%, negative = inhibition) at 10uM” value was -2.57%.
Next, `COc1cc(C(=O)Nc2ccc(S(=O)(=O)N3CCCCC3C)cc2)cc(OC)c1OC` (centres unmarked): -26%; `Cc1ccc(N2/C(=N/c3nc(C)cc(C)n3)NC(=O)CC2C(=O)O)cc1` (centres unmarked): -4.08%; `O=C(NCc1ccccc1)c1cnc(Cl)c(Cl)c1`: 0.347%.
The figure for `CC(C)COc1ccc(C(=O)Nc2scc(-c3ccc(Cl)cc3Cl)c2C(N)=O)cc1` is 10.5%; for `O=C(Cn1ncc2c1-c1ccccc1OC2)N1CCN(Cc2ccc3c(c2)OCO3)CC1` it is -61.3%.
On to `O=C(Nc1ccc(C(=O)N2CCCC2)cc1)c1cccc(C(F)(F)F)c1`, for which the “hERG current change (%, negative = inhibition) at 10uM” value was 8.2%.
Turning to `CCOc1ccc(C(=O)NCCCN2CCOCC2)cc1OCC`, the “hERG current change (%, negative = inhibition) at 10uM” value was 27%.
The figure for `O=C(CCCc1nc(-c2ccccc2)no1)N1CCOCC1` is -5.34%.
Next, `COc1ccccc1NC(=O)CSC1=NCCN1.Cl`: 36.3%; `CCCCCCNC(=O)C(=O)NCCc1ccc(Cl)cc1`: 13.8%; `COC(=O)Cc1ccc(NC(=S)NCc2cccc(OC)c2)cc1`: 2.95%.
The figure for `CNC(=O)C1CC(=O)N/C(=N/N=C(\C)c2cccs2)S1` (centres unmarked) is 17.3%; for `CC(=O)Oc1c(-c2ccc(Br)o2)oc2ccccc2c1=O` it is 7.66%.
With `Cc1ccc(C(C)C)c(OCC(=O)NC(=S)Nc2ccccc2N2CCOCC2)c1`, the “hERG current change (%, negative = inhibition) at 10uM” value is reported as 13.1%.
